Test results published in the antibiotic and cytotoxicity screens of Wong et al. (2023).
The other results are listed elsewhere or left out.

How the values were obtained:
HSkMC = human skeletal muscle cells; assay: cytotoxicity call (relative viability < 0.9); conditions: 10 µM
HepG2 = assay: cytotoxicity call (relative viability < 0.9); conditions: 10 µM
S. aureus RN4220 = assay: growth inhibition call (relative growth <= 0.2); conditions: 50 µM

SMILES | cytotoxicity call (HSkMC) | cytotoxicity call (HepG2) | growth inhibition call (S. aureus RN4220)
C[C@H]1CCCCO[C@H](CN(C)C(=O)CCC(F)(F)F)[C@@H](C)CN([C@@H](C)CO)C(=O)c2cc(NC(=O)Cc3ccccc3)ccc2O1 | inactive | active | inactive
C[C@@H]1CCCCO[C@H](CN(C)S(=O)(=O)c2ccc(Cl)cc2)[C@H](C)CN([C@H](C)CO)C(=O)c2cc(NS(=O)(=O)c3ccc(F)cc3)ccc2O1 | inactive | inactive | inactive
C[C@@H]1CN([C@@H](C)CO)C(=O)c2cc(NS(=O)(=O)c3ccccc3)ccc2O[C@@H](C)CCCCO[C@@H]1CN(C)Cc1ccccc1 | inactive | inactive | inactive
O=C(C[C@@H]1CC=CC[C@@H](NC(=O)OCC2c3ccccc3-c3ccccc32)C(=O)OC[C@H](Cc2ccccc2)NC1=O)N[C@H](CO)Cc1ccccc1 | inactive | inactive | inactive
COc1ccc(NC(=O)Nc2ccc3c(c2)C(=O)N([C@H](C)CO)C[C@@H](C)[C@H](CN(C)C(=O)Nc2ccc(C(F)(F)F)cc2)OCCCC[C@@H](C)O3)cc1 | inactive | inactive | inactive
C[C@H](CO)N1C[C@H](C)[C@H](CN(C)Cc2ccncc2)Oc2ccc(NS(=O)(=O)c3ccc(F)cc3)cc2C1=O | inactive | inactive | inactive
C[C@@H]1CCCCO[C@H](CN(C)C(=O)Nc2ccc(C(F)(F)F)cc2)[C@H](C)CN([C@@H](C)CO)C(=O)c2cc(NC(=O)Nc3ccccc3)ccc2O1 | inactive | inactive | inactive
C[C@@H]1CN([C@@H](C)CO)C(=O)c2cc(C#CC3(O)CCCC3)cnc2O[C@H]1CN(C)C(=O)Cc1cccnc1 | inactive | inactive | inactive
